Assay results published in the supplement of paper PMC12217912.
Some of the results follow. Sequences were assembled here from the parent chain. Values near 0.05 are background.

B1: TEV protease; numbered along this chain (parent)
chain: MGESLFKGPRDYNPISSSICHLTNESDGHTTSLYGIGFGPFIITNKHLFRRNNGTLVVQSLHGVFKVKDTTTLQQHLVDGRDMIIIRMPKDFPPFPQKLKFREPQREERICLVTTNFQTKSMSSMVSDTSCTFPSGDGIFWKHWIQTKDGQCGSPLVSTRDGFIVGIHSASNFTNTNNYFTSVPKNFMELLTNQEAQQWVSGWRLNADSVLWGGHKVFMVKPEEPFQPVKEATQL

Variants of: B1
Assay: raw area under fraction-flipped curve 0-4 h after induction (AUC4h, not background-subtracted), DNA-recorder readout of cleavage of the substrate (dimensionless); higher = more cleavage of the substrate by the protease variant
Conditions: temperature: 34 °C; time window: 0-4 h after rhamnose induction
Protocol: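 In vivo DNA recorder in E. coli TOP10(DE3) ΔrhaA at 34 °C. Each TEVp single-site mutant (parent TEVp 0) is paired with a single-site variant of the 7-mer TEVs (canonical ENLYFQ|S). The substrate sits between flexible linkers in a Bxb1-sfGFP-TEVs-SsrA fusion, so cleavage stabilises Bxb1 and speeds flipping of a recombination array, read by NGS. The value is the raw area under the fraction-flipped curve over 0-4 h after rhamnose induction (AUC4h), with ≥20 reads per time point. It is not background-subtracted; inactive controls average about 0.047.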
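Also: Bxb1 expression induced with 0.2% (w/v) L-rhamnose at OD600 near 0.5, cultures sampled hourly, flipped fraction per protease–substrate barcode pair counted by paired-end Illumina sequencing.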

| Variant | area with substrate EALYFQS | area with substrate ECLYFQS | area with substrate EGLYFQS | area with substrate EILYFQS | area with substrate EKLYFQS | area with substrate EMLYFQS | area with substrate EPLYFQS | area with substrate EQLYFQS | area with substrate ERLYFQS | area with substrate ESLYFQS | area with substrate ETLYFQS | area with substrate EVLYFQS | area with substrate EWLYFQS | area with substrate EYLYFQS | area with substrate EDLYFQS | area with substrate EELYFQS | area with substrate EHLYFQS | area with substrate ELLYFQS | area with substrate EFLYFQS |
| --- | --- | --- | --- | --- | --- | --- | --- | --- | --- | --- | --- | --- | --- | --- | --- | --- | --- | --- | --- |
| Q198I | 0.124 | 0.0871 | 0.0799 | 0.0763 | 0.0971 | 0.0998 | 0.121 | 0.078 | 0.088 | 0.0904 | 0.104 | 0.0799 | 0.0906 | 0.084 |  |  |  |  |  |
| T132V | 0.107 | 0.0956 | 0.085 | 0.109 | 0.105 |  | 0.142 | 0.116 | 0.0797 | 0.0989 |  | 0.0782 | 0.0999 | 0.109 | 0.115 | 0.0984 | 0.114 | 0.104 |  |
| Q197K | 0.127 | 0.0904 |  | 0.074 | 0.131 |  |  |  |  | 0.105 |  | 0.0815 |  |  |  |  | 0.0876 |  | 0.0687 |
| I36V | 0.122 | 0.106 |  | 0.112 | 0.107 |  | 0.0981 | 0.123 | 0.122 | 0.0904 |  | 0.0986 | 0.0959 | 0.106 | 0.108 | 0.137 | 0.164 | 0.0874 |  |
| F163V | 0.0566 |  | 0.0872 |  |  |  | 0.101 |  | 0.0981 | 0.0439 | 0.111 |  | 0.121 |  | 0.13 |  |  |  | 0.0853 |
| K221I | 0.0988 | 0.0912 | 0.0745 | 0.0925 | 0.0882 |  |  | 0.088 | 0.0911 | 0.0871 | 0.0811 | 0.089 | 0.0785 | 0.13 | 0.0876 | 0.107 | 0.0884 | 0.103 |  |
| I139S | 0.221 | 0.129 |  | 0.12 |  | 0.17 | 0.122 |  |  | 0.12 |  |  |  | 0.117 | 0.155 |  | 0.16 | 0.122 |  |
| M125T | 0.126 | 0.105 |  | 0.0951 | 0.105 | 0.106 | 0.109 | 0.121 | 0.103 | 0.0927 |  | 0.0984 | 0.105 | 0.118 | 0.134 |  | 0.111 | 0.106 |  |
| H62F | 0.122 | 0.107 |  | 0.0904 | 0.119 | 0.105 | 0.1 | 0.118 | 0.102 | 0.1 |  | 0.0862 | 0.0959 | 0.109 |  | 0.118 |  | 0.0913 | 0.0907 |
| Q234K | 0.119 | 0.112 |  | 0.101 | 0.132 | 0.119 |  | 0.114 | 0.0992 | 0.118 | 0.127 | 0.127 | 0.0949 |  |  | 0.122 | 0.0713 | 0.0884 | 0.0656 |
| F226W | 0.116 | 0.0987 | 0.0861 | 0.0957 | 0.0909 | 0.108 | 0.146 | 0.138 | 0.0759 | 0.105 |  | 0.0966 | 0.1 | 0.0916 | 0.113 |  | 0.134 | 0.108 | 0.117 |
| V126W | 0.137 | 0.151 |  | 0.078 | 0.133 | 0.133 | 0.14 | 0.124 | 0.117 | 0.112 | 0.145 | 0.102 |  |  |  | 0.145 | 0.124 | 0.1 | 0.0875 |
| K100V | 0.114 | 0.101 |  | 0.108 | 0.0882 |  |  | 0.112 | 0.111 | 0.109 |  | 0.0942 |  | 0.102 | 0.117 | 0.125 |  |  |  |
| D161C | 0.0847 | 0.0759 | 0.0746 | 0.0834 | 0.0889 | 0.0753 | 0.057 | 0.0871 | 0.0784 | 0.0982 |  | 0.0766 | 0.0893 | 0.0761 |  | 0.0939 | 0.0861 | 0.0681 |  |
| F180C | 0.0968 | 0.0746 |  |  | 0.0939 | 0.0835 | 0.11 | 0.0922 | 0.0742 | 0.0774 | 0 | 0.0732 |  | 0.0634 |  | 0.102 | 0.0706 | 0.0803 |  |
| Q105C | 0.106 | 0.0997 | 0.0959 | 0.0867 | 0.0967 |  |  |  | 0.127 | 0.0914 |  | 0.0992 |  | 0.091 | 0.112 | 0.133 |  |  |  |
| T129W | 0.105 |  |  | 0.0692 | 0.0894 |  | 0.107 | 0.102 | 0.0914 | 0.0961 |  | 0.0705 | 0.0857 | 0.112 |  | 0.0951 | 0.0877 | 0.0988 | 0.0973 |
| D11A | 0.119 | 0.0939 | 0.107 | 0.0794 | 0.102 | 0.0912 | 0.132 | 0.105 |  | 0.103 |  | 0.0864 | 0.0898 | 0.103 | 0.131 | 0.0597 | 0.0604 | 0.098 |  |
| G39Q | 0.0437 | 0.0355 |  | 0.0408 | 0.0236 | 0.0464 | 0.0424 | 0.0414 | 0.0397 | 0.0446 | 0.0473 | 0.0454 | 0.0443 |  |  |  |  | 0.0444 | 0.0546 |
| V67L | 0.117 | 0.0924 | 0.101 |  |  | 0.11 |  | 0.113 | 0.106 |  | 0.0915 | 0.0825 |  |  |  |  | 0.0954 | 0.0897 | 0.0706 |
| P155A | 0.117 | 0.101 |  | 0.09 | 0.135 | 0.115 |  | 0.134 | 0.107 | 0.0966 |  | 0.0952 | 0.103 |  | 0.113 | 0.107 | 0.119 |  |  |
| V57G | 0.116 |  |  |  | 0.0964 |  |  |  | 0.106 | 0.0539 |  | 0.0888 |  |  |  |  | 0.098 |  |  |
| Q234I | 0.114 | 0.0912 |  | 0.0791 | 0.0866 | 0.0998 |  | 0.118 | 0.0941 | 0.116 |  |  | 0.0977 | 0.0981 |  | 0.0953 |  | 0.11 | 0.0993 |
| L22K | 0.0558 | 0.0474 | 0.0525 | 0.0333 | 0.0471 | 0.0418 | 0.0398 | 0.0429 | 0.0283 | 0.0404 |  | 0.0238 | 0.0376 | 0.049 |  | 0.0493 | 0.0426 |  | 0.0403 |
| D11Q | 0.104 | 0.0974 | 0.0674 | 0.0939 | 0.0942 | 0.102 | 0.0894 |  | 0.0989 | 0.0925 |  | 0.0794 | 0.0861 | 0.103 |  | 0.101 |  | 0.103 | 0.0878 |
| S124W | 0.116 | 0.0803 |  |  | 0.12 | 0.0927 |  | 0.136 | 0.0983 | 0.0884 | 0.091 |  | 0.0955 |  | 0.0524 |  | 0.1 | 0.0803 |  |
